{
  "source": "PubChem BioAssay AID2546",
  "about": "(National Center for Advancing Translational Sciences (NCATS), 2010)",
  "note": "“And” between values parts separate entries of the source, which are not always exact repeats. Identical values can stand only once. The campaign covered roughly 310,000 compounds. About 11,000 (3.5%) were called active. The shares of active, inactive and inconclusive entries below differ from those in the screen. The call rests on the fitted dose curve; in most records, active means well fitted inhibition curve with a large enough effect; inconclusive means small, poorly fitted or top-dose-only effect, or effect the other way; inactive means flat fitted curve, though single readings scatter. No potency is given beside an inconclusive call; the fits are too rough. Some compounds were tested as several samples or in several runs, with calls that do not always agree. On the % scale 0 is the no-effect control and ±100 the full control effect; potency means the concentration at half of the fitted maximal effect; tags describe the fitted curve by direction and shape.",
  "data": [
    {"assay": "VP16 counterscreen qHTS for inhibitors of ROR gamma transcriptional activity;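 further: Gal4-VP16 expression switched on by copper sulfate through the metallothionein promoter; nearly all actives have a fitted effect of over 50% in size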", "conditions": "Drosophila S2 Gal4-VP16 UAS-luciferase, luminescence, 20 h; activity, negative = inhibition: at 53.6 µM (top of the series)", "values": [
      {"compound": "CCOC(=O)c1ccc2nc(C)c(C)nc2c1", "Potency": "inconclusive [activator, partial curve, poor fit]"},
      {"compound": "Cc1ccc(C(=O)Nc2cccnc2)cc1S(=O)(=O)N1CCCCCC1", "activity, negative = inhibition": "inactive: 5.57%"},
      {"compound": "Cc1cc(S(=O)(=O)Nc2ccc3c(c2)COC3=O)ccc1F", "activity, negative = inhibition": "inactive: 1.06%"},
      {"compound": "O=C(CN1C(=O)/C(=C/c2ccccc2)SC1=S)Nc1ncc(Cc2ccccc2)s1", "Potency": "inconclusive [inhibitor, single point]"},
      {"compound": "CN1CCN(C(c2ccc(C(F)(F)F)cc2)c2cc(Cl)c3cccnc3c2O)CC1", "note": "(stereo unspecified)", "Potency": "active: 0.891 µM"},
      {"compound": "Cc1nc(SCc2ccc(OCCC(C)C)cc2)n[nH]1", "Potency": "inconclusive [inhibitor, partial curve, poor fit]"},
      {"compound": "O=C(Nc1nnc(-c2ccccc2)o1)c1cc(Cl)sc1Cl", "Potency": "active: 1.26 µM"},
      {"compound": "S=C(Nc1ccc(Cl)cc1)NC1CCCCC1", "Potency": "active: 15.8 µM"},
      {"compound": "Cc1cccc(OCc2n[nH]c(=S)n2-c2ccccc2)c1", "Potency": "inconclusive [inhibitor, partial curve]"},
      {"compound": "CCCCCC(=O)Nc1sc(C)c(C)c1C#N", "activity, negative = inhibition": "inactive: 15.5%"},
      {"compound": "CC(C)C(=O)NCCc1nc2ccccc2n1CCCOc1ccc(Cl)cc1", "Potency": "inconclusive [inhibitor, single point]"},
      {"compound": "O=S(=O)(NCC1CCCO1)c1ccc(Br)s1", "note": "(stereo unspecified)", "Potency": "inconclusive [activator, single point]"},
      {"compound": "COC(=O)c1ccc([C@@H]2C[C@H]3CN(Cc4cccnc4)C(=O)[C@]34CCCN24)cc1", "activity, negative = inhibition": "inactive: -15.9%"},
      {"compound": "O=C(c1ccc2c(c1)N(Cc1ccccc1F)C(=O)c1ccccc1S2)N1CCOCC1", "activity, negative = inhibition": "inactive: -27.5%"},
      {"compound": "CC(=O)OC[C@@H]1O[C@@H](O/N=C2/C[C@@H](O)[C@@H](O)[C@@H]3[C@@H]4C(=O)N(Cc5ccccc5)C(=O)[C@H]4CC[C@@H]23)[C@H](OC(C)=O)[C@H](OC(C)=O)[C@@H]1OC(C)=O", "activity, negative = inhibition": "inactive: 3.62% [at 10 µM]"},
      {"compound": "Cc1c(C(=O)Nc2ccncc2)sc2nc(-c3ccccc3)cn12", "Potency": "inconclusive [inhibitor, single point]"},
      {"compound": "O=C(Oc1c(-c2ccccc2)oc2ccccc2c1=O)c1ccccc1", "Potency": "inconclusive [inhibitor, single point]"},
      {"compound": "CN(C)c1ccc(-c2nc(NCc3cccnc3)c3ccccc3n2)cc1", "Potency": "active: 14.1 µM"},
      {"compound": "CCc1nnc(NC(=O)/C=C/c2cccs2)s1", "Potency": "inconclusive [activator, single point]"},
      {"compound": "C=CCn1c(SCC(=O)O)nnc1-c1ccc(C(C)(C)C)cc1", "Potency": "inconclusive [inhibitor, partial curve, poor fit]"},
      {"compound": "CCCCCCCC/C=C\\CCCCCCCC(=O)NCCc1ccc(O)c(O)c1", "Potency": "active: 17.8 µM"},
      {"compound": "O=C(c1ccccc1)c1ccc(OCC(O)CN2CCCC2)cc1", "note": "(stereo unspecified)", "Potency": "inconclusive [inhibitor, single point]"},
      {"compound": "C[C@@H](c1ccccc1)N1C(=O)[C@@H]2[C@H]3C(=CC[C@H]2C1=O)C(=O)[C@H]1O[C@H]1[C@H]3O", "Potency": "inconclusive [activator, single point]"},
      {"compound": "Nc1ccccc1S(=O)(=O)Nc1cccc2cccnc12", "Potency": "active: 2.51 µM and active: 2.24 µM"},
      {"compound": "Cc1noc(C)c1CSc1ncnc2sc3c(c12)CCCCC3", "Potency": "inconclusive [inhibitor, single point]"},
      {"compound": "COc1cc(C(=O)NNc2nc3cc4c(cc3s2)OCO4)cc(OC)c1OC", "Potency": "active: 12.6 µM"},
      {"compound": "Cc1cc(C)cc(N(CCC(=O)O)S(=O)(=O)c2ccc3ccccc3c2)c1", "Potency": "inconclusive [inhibitor, single point]"},
      {"compound": "Fc1ccc(-c2nnn(Cc3nc4ccccc4s3)n2)cc1", "activity, negative = inhibition": "inactive: 2%"},
      {"compound": "CCc1ccc(CNc2ccc3c(c2)ncn3CC)cc1", "Potency": "inconclusive [inhibitor, single point]"},
      {"compound": "C=CCn1c(SCc2ccc(C(=O)Nc3nccs3)cc2)nnc1-c1ccc(C)c(Cl)c1", "Potency": "inconclusive [inhibitor, single point]"},
      {"compound": "c1ccc(-c2nnc(-c3ccco3)o2)cc1", "Potency": "inconclusive [inhibitor, single point]"},
      {"compound": "CC(=O)c1c(C)[nH]c(C(=O)OCCOc2ccccc2)c1C", "Potency": "active: 8.91 µM"},
      {"compound": "O=C(Nn1c(C2CCCCC2)nc2ccccc2c1=O)c1ccc(Cl)c([N+](=O)[O-])c1", "Potency": "inconclusive [inhibitor, single point]"},
      {"compound": "COc1ccc2[nH]c3c(N4CCN(Cc5ccc6c(c5)OCO6)CC4)ncnc3c2c1", "Potency": "inconclusive [inhibitor, single point]"},
      {"compound": "Cc1ccc(/C=C/C(=O)Nc2ccccc2C(N)=O)cc1", "Potency": "inconclusive [inhibitor, partial curve]"},
      {"compound": "COc1ccc(-c2nc3ccccc3s2)cc1O", "Potency": "active: 8.91 µM"},
      {"compound": "COc1ccc(N(C)C(=O)CN(C)S(=O)(=O)c2ccc3c(c2)c(=O)n(C)c(=O)n3C)c(OC)c1", "activity, negative = inhibition": "inactive: -4.84%"},
      {"compound": "O=C(CSc1n[nH]c(-c2ccccn2)n1)Nc1ccc(F)cc1", "Potency": "inconclusive [inhibitor, single point]"},
      {"compound": "COc1ccc(-c2cc(C(F)(F)F)c3c(N)c(C(=O)NCCSC)sc3n2)cc1", "Potency": "inconclusive [inhibitor, single point]"},
      {"compound": "NC(=O)CC(NC(=O)c1ccc(Br)cc1)c1ccc(NCCc2ccc(F)cc2)c([N+](=O)[O-])c1", "note": "(stereo unspecified)", "Potency": "inconclusive [inhibitor, single point]"},
      {"compound": "C/C(Cn1nnc([N+](=O)[O-])n1)=N\\NC(=O)c1ccc(O)cc1O", "Potency": "active: 2.82 µM"},
      {"compound": "O=C1CCCN1c1ccc(CNS(=O)(=O)c2ccc(F)cc2)cc1", "activity, negative = inhibition": "inactive: 2%"},
      {"compound": "O=C(Nc1nc(-c2ccccc2)cs1)c1ccc2c(=O)n3c(nc2c1)CCCCC3", "Potency": "inconclusive [inhibitor, partial curve]"},
      {"compound": "CCC(CC)COC(=O)C1=C(C)NC(=O)NC1c1cccc([N+](=O)[O-])c1", "note": "(stereo unspecified)", "Potency": "inconclusive [inhibitor, single point]"},
      {"compound": "CCN1CCN(C(=O)c2ccccc2NC(=O)c2ccc(Cl)cc2)CC1", "activity, negative = inhibition": "inactive: 3.88%"},
      {"compound": "COc1cc(/C=C2/C(=O)NN(c3cccc(F)c3)C2=O)ccc1OC(=O)c1ccco1", "Potency": "inconclusive [inhibitor, single point]"},
      {"compound": "COc1cc(-c2nc(-c3ccc4c(c3)-c3ccccc3S4(=O)=O)c(-c3ccccc3)[nH]2)cc(OC)c1O", "Potency": "active: 4.47 µM"},
      {"compound": "COc1cccc(C(=O)COC(=O)CCCC(=O)NC2CCCCC2)c1", "activity, negative = inhibition": "inactive: -18.9%"},
      {"compound": "COc1cccc(-c2c(C(=O)N/N=C/c3ccc(C)s3)nnn2-c2nonc2N)c1", "Potency": "active: 5.62 µM"},
      {"compound": "O=C(/C=C/c1ccc(Cl)cc1Cl)NCc1ccco1", "Potency": "inconclusive [inhibitor, full curve]"},
      {"compound": "CCCn1c(C)cc(C(=O)COc2ccc(-c3nnco3)cc2)c1C", "Potency": "inconclusive [inhibitor, single point]"},
      {"compound": "C1CCC(n2nnnc2CN2CCN(C3CCCC3)CC2)CC1", "activity, negative = inhibition": "inactive: 3.25%"},
      {"compound": "CNC[C@H](CC1CCCCC1)NC[C@H](Cc1ccccc1)NCCC12CC3CC(CC(C3)C1)C2", "Potency": "inconclusive [inhibitor, single point]"},
      {"compound": "O=C(Nc1ccc(CSc2ccccc2)cc1)c1ccco1", "Potency": "inconclusive [activator, full curve, poor fit]"},
      {"compound": "O=C(N/N=C/c1ccc(N2CCOCC2)cc1)c1ccccc1OCCOc1ccccc1", "activity, negative = inhibition": "inactive: -21.4%"},
      {"compound": "Brc1ccc(Cn2c(-c3cncs3)nc3ccccc32)cc1", "Potency": "active: 6.31 µM"},
      {"compound": "CCOc1cccc(-c2c(C(=O)N/N=C/c3ccsc3)nnn2-c2nonc2N)c1", "Potency": "active: 25.1 µM"},
      {"compound": "CC(NC(=S)Nc1ccc(S(=O)(=O)N2CCOCC2)cc1)C1CC2CCC1C2", "note": "(stereo unspecified)", "Potency": "inconclusive [inhibitor, single point]"},
      {"compound": "O=C(NCCN1CCCC1)C1CCC(=O)N(CCCN2CCOCC2)C1", "note": "(stereo unspecified)", "activity, negative = inhibition": "inactive: -6.1%"},
      {"compound": "O=C1/C(=C/c2cccc([N+](=O)[O-])c2)CCc2ccccc21", "Potency": "inconclusive [inhibitor, single point]"},
      {"compound": "Cc1ccc(-n2c(=S)[nH]c3sc4c(c3c2=O)CCc2ccccc2-4)cc1", "Potency": "active: 0.631 µM"},
      {"compound": "Cc1ccccc1NC(=O)N1C2CCCC1CC(NC(=O)C(C)(C)C)C2", "note": "(stereo unspecified)", "activity, negative = inhibition": "inactive: -3.42%"},
      {"compound": "Cc1ccc(-n2c(SCC(=O)Nc3ncc(Cl)cc3Cl)nc3ccccc32)cc1", "Potency": "inconclusive [inhibitor, single point]"},
      {"compound": "Cn1c(=O)c2c(nc(N/N=C/c3ccc(OC(=O)c4ccco4)cc3)n2Cc2ccc(F)cc2)n(C)c1=O", "Potency": "active: 17.8 µM"},
      {"compound": "O=C(Nc1cccs1)Nc1c(F)c(F)cc(F)c1F", "Potency": "inconclusive [inhibitor, single point]"},
      {"compound": "Cn1c(C(C#N)C2=C(Cl)C(=O)N(c3ccccc3)C2=O)nc2ccccc21", "note": "(stereo unspecified)", "Potency": "inconclusive [inhibitor, single point]"},
      {"compound": "C#CCn1c(=NC(=O)c2cc(-c3cccs3)nc3ccccc23)sc2cc(S(N)(=O)=O)ccc21", "Potency": "inconclusive [inhibitor, single point]"},
      {"compound": "Cc1ccccc1NC(=S)N1CCN(c2ccccc2Cl)CC1", "Potency": "active: 7.08 µM"},
      {"compound": "Cc1ccccc1CN(CC(=O)Nc1cccc([N+](=O)[O-])c1)S(=O)(=O)c1ccc(Cl)cc1", "Potency": "inconclusive [inhibitor, single point]"},
      {"compound": "Cc1cccc(C(=O)CC(=O)c2cc(Cl)ccc2O)c1", "Potency": "inconclusive [inhibitor, single point]"},
      {"compound": "O=C1NC(=O)C(Cc2ccc(OCCN3COc4ccccc4C3=O)cc2)S1", "note": "(stereo unspecified)", "Potency": "inconclusive [activator, full curve]"}
    ]}
  ]
}
